Reference: ChEMBL document CHEMBL4888484, “Replenishing the malaria drug discovery pipeline: Screening and hit evaluation of the MMV Hit Generation Library 1 (HGL1) against asexual blood stage Plasmodium falciparum ,using a nano luciferase reporter read-out” (2022)
About 410 (8.5%) of roughly 4,800 compounds showed an effect of 50% or more. The list shows a part of the results.

What follows are compounds tested on Plasmodium falciparum (assay: Confirmatory screen in NF54 pLDH assay, in single point, at 2uM, 72h). Conditions: timepoint 72 hour.
Type: functional, Erythrocyte

Row | Compound | % Inhibition [%]
1 | CC(C)NC(=O)[C@H](C)N(C)Cc1nccn1CC(F)(F)F | 8
2 | O=C(CCc1ccc(Cl)c(C(F)(F)F)c1)N1CC[C@H](N2CCc3ccccc3C2)C1 | 45
3 | O=C(CNc1cccc(C(F)(F)F)c1)OCC(=O)N1CCNC1=O | 5
4 | Cc1noc(C)c1CS(=O)(=O)CCC(=O)NC1CCCCC1 | -6
5 | CCCCC[C@H](C)NC(=O)CCC(=O)Nc1cccnc1 | -17
6 | Cc1ccc(S(=O)(=O)NCC2(CNS(=O)(=O)c3ccc(C)cc3)CN(S(=O)(=O)c3ccc(C)cc3)C2)cc1 | 6
7 | CC(C)(CC(=O)O)CC(=O)Nc1ccc(Cc2nnc3ccccn23)cc1 | 12
8 | O=C(NCCCc1ccccc1)[C@H]1CCCN(c2nc3ccccc3[nH]2)C1 | -4
9 | COCC1(C(=O)N2CCN(c3cncc4ccccc34)CC2)CCC1 | 7
10 | COc1cccc(NC(=O)CN2CN(c3ccccc3)C3(CCN(C(=O)C[C@@H](C)CC(C)(C)C)CC3)C2=O)c1 | 3
11 | O=C(O)c1cc(C=Cc2ccc3ncccc3c2)ncn1 | 11
12 | C=CCOc1ccc(Cl)c(C(=O)N[C@H]2CCS(=O)(=O)C2)n1 | 3
13 | O=C(C1CCCC1)N1CCN(S(=O)(=O)c2ccccc2)CC1 | 1
14 | Cc1cncn1C1CCN(C(=O)C2(Cc3ccccc3)CC3CCC2C3)CC1 (stereo unspecified) | -1
15 | CN(Cc1ccccc1)c1nc2ncn(CC(=O)NC3CCCCC3)c(=O)c2s1 | -13
16 | COc1ccc(N2CCN(c3nccn4nc(-c5cccs5)cc34)CC2)cc1 | 12
17 | CO[C@H]1c2ccccc2C(=O)N1C1CCCCCCCCCCC1 | 11
18 | CCC(=O)Nc1nc2ccc(NS(=O)(=O)c3cccc4nsnc34)cc2s1 | 6
19 | O=C(NCC(N1CCOCC1)C(F)(F)F)C1CC12CCOC2 (stereo unspecified) | 14
20 | CC(NC(Cc1ccccc1)C(=O)N1CCCCC1)c1ccncc1 (stereo unspecified) | -11
21 | Cc1nn(C)c(NC(=O)CCc2c[nH]cn2)c1C | -7
22 | COc1cccc(C(=O)Nc2noc(-c3cccc(OC)c3)c2-c2ccc(Cl)cc2)c1 | -19
23 | O=C(c1ccccc1F)N(Cc1nccn1Cc1c(F)cccc1Cl)C1CC1 | -18
24 | O=C(NC1CCOCC1)c1ccc(-c2ccc(F)c(F)c2F)cn1 | 10
25 | COc1cc(N2CCn3c(nc4cc(Cl)ccc43)C2)ccc1NC(=O)C1CCCCC1 | -13
26 | CC(C)CS(=O)(=O)Nc1ccccc1C(N)=O | -4

Row | Compound | % Inhibition [%]
27 | COc1cccc(CNCCCN2CCOCC2)c1OCc1ccc(Cl)cc1Cl | 12
28 | Cc1nn(-c2ccccc2)c2c1[C@@H](c1ccc(C(F)(F)F)cc1)N(c1ccccc1)C(=O)N2 | 9
29 | Cc1c(NC(=O)C(F)(F)[C@@]2(F)OC(F)(F)C(F)(F)C2(F)F)c(=O)n(-c2ccccc2)n1C | -16
30 | CCOC(=O)N1CCN(c2nccn3nc(-c4ccc(OC)c(OC)c4)cc23)CC1 | -12
31 | C/C(=N\S(=O)(=O)c1ccc(Cl)cc1)Nc1cc(C(C)C)c(O)cc1C | 0
32 | O=C(O)c1ccc(N(C(=O)c2ccc3c(c2)OCO3)C(=O)c2ccc3c(c2)OCO3)cc1O | 15
33 | CCCCNC(=O)NCc1nc2ccccn2c1Cl | -14
34 | COc1cccc(N2C(=O)N[C@H](C)C2=O)c1 | 15
35 | CCCOc1ccc2c(c1)OCC(C(=O)N1CCC[C@H](C(N)=O)C1)=C2 | 3
36 | CC(=O)N1CCCN(S(=O)(=O)Cc2ccccc2Cl)CCNC(=O)[C@@H]2CCC[C@@H]21 | 9
37 | O=C1NC(=O)c2ccc3c4c(ccc1c24)C(=O)N(c1ccccc1)C3=O | 35
38 | CN(C(=O)CN(CCO)c1ccc(Br)cc1)C1CC1 | 2
39 | C[C@H]1[C@@H]2[C@@H](O)C([C@H](C)C(=O)NC3CCCCC3)CC[C@@]2(C)CC[C@@H]1NC(=O)CC(C)(C)C (stereo partly specified) | 37
40 | N#Cc1c(NC(=O)Nc2cn3ccccc3c2C#N)cn2ccccc12 | 35
41 | O=C(CN1CCC(c2ccc(F)c(F)c2)CC1)NCc1cccnc1 | -8
42 | Cc1ccc(C)c(NC(=O)CN2CCC3(CC2)NC(c2ccc(OC(F)(F)F)cc2)=NO3)c1 | 6
43 | COCC(=O)N(C1CCOCC1)[C@H]1CCCN(Cc2c[nH]c3ccc(OC)cc23)C1 | -6
44 | NC(=O)CN1CCC2(CC1)NC(c1ccc(OC(F)(F)F)cc1)=NO2 | 5
45 | COc1cc(Br)ccc1N | 6
46 | Cc1c2c(C(F)(F)F)cc(=O)n(CCC(=O)Nc3ncc(Cl)cc3Cl)c2nn1C | -7
47 | CCn1c(=O)c(N2CCC(C(=O)N3CCN(c4ccccc4F)CC3)CC2)nc2cccnc21 | -9
48 | CC(C)Cc1nsc(NCc2ccc(O)cc2O)n1 | 0
49 | Cc1cc(C)c2c(c1)[C@@H](C)CC(C)(C)N2C(=O)c1sc2ccccc2c1Cl | 5
50 | C[C@@H](C(=O)NCCN1CCCCC1)N1C(=O)COc2ccc(C(=O)COc3ccccc3Cl)cc21 | -20
51 | Cc1ccc(Cn2c(=O)c(N3CCC[C@H](C(=O)NCc4ccccc4F)C3)nc3ccccc32)cc1 | 13
52 | CC(C)CN1C(=O)CC[C@@H](C(=O)NCCCN2CCOCC2)[C@@H]1c1cccnc1 | -17

Row | Compound | % Inhibition [%]
53 | COc1ccc(C(C)=O)c(O[C@@H](C)C(=O)NCC(F)(F)F)c1 | -9
54 | O=S(=O)(Nc1ccc(O)c2cccnc12)N1CCCC1 | 36
55 | c1ccc2c[n+](Cc3ccc4ccccc4n3)ccc2c1 | 47
56 | CC(C)(C)c1cc2c(NCC3=CCOCC3)nccn2n1 | 9
57 | N#Cc1cccnc1-n1cc(NC(=O)NCCC2(O)CCC2)cn1 | -8
58 | COc1ccc(-c2nn(C3CCCC3)c(-c3ccc(OC)c(OC)c3)c2Cl)cc1OC | -1
59 | CCOCCCNC/C=C/c1ccccc1 | 2
60 | CCN(C(=O)Cn1c(=O)n(Cc2ccc(F)cc2)c(=O)c2ccccc21)c1cccc(C)c1 | 1
61 | Cc1ccc(N(C)CC(=O)N2CCC2)c(Br)c1 | -7
62 | O=C(Nn1cnc2ccccc2c1=O)c1cnccn1 | 5
63 | Cn1nc(C(=O)Nc2nnc[nH]2)ccc1=O | -6
64 | Cc1nonc1N(Cc1ccc(Cl)cc1Cl)S(=O)(=O)c1ccccc1 | -10
65 | Cn1nc(C(=O)NCc2ccc(F)cc2)cc1C(=O)NCc1ccc(F)cc1 | 2
66 | O=C(c1ccccn1)N1CC(n2cnnc2[C@@H]2CCCO2)C1 | -7
67 | COCCN1C(=O)C[C@H](Nc2ccc3c(c2)CCC3)C1=O | 12
68 | CCCNC(=O)C1=Cc2ccccc2OC=C1 | -12
69 | CCC(C)(C)c1ccc(OCC(=O)Nc2cccc(C(=O)CC(=O)Nc3ccc(Oc4ccccc4)cc3)c2)c(C(C)(C)CC)c1 | 1
70 | NC(=O)C1C(=O)NC(c2ccccc2)C=C1c1ccccc1 (stereo unspecified) | 6
71 | O=S(=O)(Cc1ccon1)N1CCN(Cc2cccnc2)CC1 | 6
72 | CS(=O)(=O)Cc1ccc(Cl)cc1NC1CCCC(C2CC2)C1 (stereo unspecified) | 9
73 | CC1(C)C[C@](C)(c2ccc(N)cc2)c2cc(N)ccc21 | -13
74 | COC(c1ccc(-c2ccc(OC3CC3)cc2)cc1)C(C)N (stereo unspecified) | -14
75 | CN1CCC(n2ncc3[nH]c(-c4ccc(C(F)(F)F)cc4)nc32)CC1 | 99
76 | CCCC(=O)N1CCC(OC(=O)c2cnc3ccc(F)cc3c2)CC1 | -10
77 | CCN1C(=O)c2ccc(NC(=O)c3ccncc3)c3cccc1c23 | 2
78 | O=C(N[C@@H](Cn1nccn1)c1ccccc1)c1cc(Br)ccc1Cl | 75

Row | Compound | % Inhibition [%]
79 | Cc1cc(=O)n(CC(=O)N2CCC(C)CC2)c(-c2ccc(F)cc2)n1 | 4
80 | O=S1(=O)CCC(NCCC2CCCO2)c2cc(F)c(F)cc21 (stereo unspecified) | -1
81 | O=C(C[C@H]1CCN(C(=O)c2ccc(F)cc2)C1)N1CCOCC1 | -6
82 | CN(C)C(=O)CN1CCc2cccc(NC(=O)OC(C)(C)C)c21 | 12
83 | CC(C)NC(=O)N(C)Cc1ccc(F)cc1 | 8
84 | O=C(NCC1CC1)c1cn[nH]c1-c1ccccc1 | 1
85 | CC[C@H](C)S(=O)(=O)NC(=O)Cc1c(C)noc1C | 10
86 | CC(C)CC[C@@H](CCNC1CCN(C)CC1)c1ccc(Cl)cc1 | 83
87 | NC(=O)c1nnn(CC(=O)c2ccc(Cl)cc2)c1C(N)=O | 1
88 | O=C(NCCc1ccc(O)cc1)c1ccc2n[nH]c(=O)n2c1 | -20
89 | CCc1nnc(NC(=O)C2(C)COC(c3ccccc3)OC2)s1 (stereo unspecified) | 5
90 | Cc1nc(NC(=O)NCCn2ncnn2)sc1C | 10
91 | CC1=CC(C2CC(=O)N(c3ccc(Cl)cc3)C2=O)CC2C(=O)N(c3ccc(Cl)cc3)C(=O)C12 (stereo unspecified) | 2
92 | Cn1cnnc1NC(=O)[C@@H]1CC=CCC1 | 3
93 | N#Cc1cnn2ccc(-c3ccc4c(c3)CCC4)nc12 | -2
94 | Cn1c(=O)c2ccnn2c2ccc(C(=O)NC3CCN(Cc4ccccc4)CC3)cc21 | 11
95 | C[C@@H](c1cccs1)N(C)C(=O)CN1C(=O)COc2ccccc21 | 2
96 | CN1CCN(CCc2nc(-c3ccc4cc[nH]c4c3)no2)CC1 | 2
97 | O=C1CCC(C(=O)N2CCC[C@H]2c2ccncc2)=NN1c1ccccc1 | -11
98 | Cc1ccc(-c2csc(N3C(=O)CC4CS(=O)(=O)CC43)n2)cc1C (stereo unspecified) | 9
99 | Cc1cc(N2CCO[C@@H](Cn3cccn3)C2)c2ccc(F)c(F)c2n1 | 5
100 | NC(=O)CN1CC2(CCCCC2)N(Cc2c(F)cccc2Cl)CC1=O | -10
101 | CCC1=C(c2ccc(C)cc2)S(=O)(=O)N=C1N1CCC(C(=O)NCCN2CCCC[C@@H]2C)CC1 | 38
